Molecules are shown by their SMILES. Among all 50,000 compounds or so, about 800 (1.6%) showed an effect of 50% or more. Some of the results follow.

In the assay the target is Bcl-2-like protein 10 (Homo sapiens) (UniProt Q9HD36). The assay is described as follows: Phenotype converters, Bcl-B/TR3 peptide binding displacement, primary biochemical FP (AID 1240).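 Further: 0% = Bcl-B with tracer peptide and DMSO and 100% = tracer peptide lacking Bcl-B.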 The conditions noted are these: GST-Bcl-B / FITC-TR3 peptide fluorescence polarization; stronger effect = higher value; compound at 3.75 mg/L.
UniProt Q9HD36, sequence (Q9HD36 whole entry, looked up): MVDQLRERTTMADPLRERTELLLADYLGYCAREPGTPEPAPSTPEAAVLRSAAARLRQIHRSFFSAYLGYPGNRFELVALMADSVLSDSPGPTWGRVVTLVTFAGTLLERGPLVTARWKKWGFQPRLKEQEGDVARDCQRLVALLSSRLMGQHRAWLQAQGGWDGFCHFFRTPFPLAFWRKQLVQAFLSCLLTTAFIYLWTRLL
In the case of `COC(=O)C[n+]1ccccc1CCC#N`, the displacement came to 12.6%. Consider `Cc1cc2c(cc1C)NC(CC(=O)Nc1ccc(Cl)cc1)C(=O)N2` (stereo unspecified), for which the displacement is -87.1%. Consider `CCOC(=O)C1=C(C)N=c2s/c(=C\c3ccco3)c(=O)n2C1c1ccccc1OC` (stereo unspecified), for which the displacement stood at 74.3%. The result for `CCOc1cc(/C=C2/SC(=S)N(CC)C2=O)ccc1OC(=O)c1cccc([N+](=O)[O-])c1` reads 34.7%; that for `COc1ccccc1NC(=O)/C(=C\c1ccco1)NC(=O)c1cccs1`, -3.7%; that for `O=c1oc2cc([N+](=O)[O-])ccc2nc1/C=C(\O)c1cccc(Br)c1`, 3%. Turning to `COc1ccc(NC(=O)COc2cccc(C)c2C)c([N+](=O)[O-])c1`, the displacement was -14.7%. The result for `O=C(NC(c1ccccc1)c1ccccc1)c1ccc([N+](=O)[O-])cc1` reads 11.2%; that for `CC(=O)Nc1nc2ccccc2n1CCN(C)C`, 7.6%.

For the compound `CCCOc1ccc(C(=O)Nc2nc(-c3ccccc3)cs2)cc1`, the displacement stood at 3.7%.

As to `COc1ccc(/C=C2\C(=O)NN(c3ccccc3)C2=O)cc1O`, the displacement is 0.4%. Regarding `C/C(Cn1nnc([N+](=O)[O-])n1)=N\NC(=O)c1ccc(O)cc1`, the displacement was 12.3%.

For `O=S(=O)(c1ccc(Cl)cc1)N1CCN(c2ccccn2)CC1`, the displacement turned out to be 9%.

As to `Cc1nn(CC(=O)NCc2ccccc2)c(=O)c2ccccc12`, the displacement is -2.7%. Turning to `CC(C)CC(=O)Nc1nc(-c2ccc3ccccc3c2)cs1`, the displacement is -7.4%.

For `Cc1ccc(NCCC(=O)c2ccc(Cl)cc2)cc1`, the displacement was 8.5%. Under `O=C1C(=O)N(c2nncs2)C(c2ccc(F)cc2)/C1=C(\O)c1ccccc1` (stereo unspecified) stands 13.6%; under `CC(C)N(C(=O)c1ccccc1F)C(C)C`, 1.3%. Consider `Cc1nc(/N=C(/N)NC(=O)c2ccccc2N)nc2ccccc12`, for which the displacement stood at 5.3%. Consider `CC(C)COc1ccc(Cc2c(O)nc(N)[nH]c2=O)cc1`, for which the displacement was -7.3%. As to `CCOc1ccc(/C=N/NC(=O)c2ccccc2O)cc1`, the displacement stood at 12.2%. As for `CCOC(=O)C(=O)Nc1sc2c(c1C(=O)OCC)CC(C)(C)OC2`, the displacement is 25.7%.

For `COC(=O)c1sccc1NC(=O)c1cccc(Br)c1`, the displacement was 19%.

For `O=c1[nH]c2ccc(Nc3nc4ccccc4nc3NS(=O)(=O)c3ccc(Cl)cc3)cc2[nH]1`, the displacement was 102%. With `Cn1c(SCC(=O)N/N=C/c2c(Cl)cccc2Cl)nc2ccccc21`, the displacement is -3.1%.

For `CCOc1ccccc1C(=O)Nc1nc2ccc(C)cc2s1`, the displacement was found to be 9.1%. The result for `CS(=O)(=O)N(CC(=O)O)c1ccc(Br)cc1` reads 5.6%; that for `CN(C)c1ccc(/C=N/NC(=O)c2ccc(CN3CCOCC3)cc2)cc1Br`, 6.3%. Turning to `CCCC1(O)CC(c2ccccc2)N(C)C(c2ccccc2)C1C` (stereo unspecified), the displacement was 9.8%.

In the case of `Cc1ccccc1OCC(=O)Nc1cccc(NC(=O)c2ccccc2Cl)c1`, the displacement stood at 0.1%. As to `COc1ccccc1/C=N\NC(=O)c1cc(C(C)(C)C)[nH]n1`, the displacement was 3.5%. The result for `O=C(/C=C/c1ccc([N+](=O)[O-])o1)c1ccc(I)cc1` reads 12.7%; that for `O=C(NCCO)C(=O)Nc1ccc(Cl)c(C(F)(F)F)c1`, -4.6%; that for `Cc1ccc(-c2cc3nc4c(c(=O)n3[nH]2)CCCC4)cc1`, -5.3%. With `O=C(O)c1c(Br)c(Br)c(Br)c(Br)c1C(=O)N1CCCC1`, the displacement was -6.7%.

As to `CCOC(=O)c1c(NC(=O)Cc2ccc(Cl)cc2)sc(C(=O)Nc2ccc(OC)cc2OC)c1C`, the displacement came out at 18.5%. Under `CCCC(=O)Nc1ccc(N2CCN(C(C)=O)CC2)cc1` stands 14.5%; under `O=C(Nc1cccc(Br)c1)c1ccc(N2C(=O)c3cccnc3C2=O)cc1`, -13.9%. Take `CC(=O)c1cccc(NC(=O)CC2S/C(=N\N=C\c3cccs3)NC2=O)c1` (stereo unspecified): the displacement was -3.9%. For `Cc1no[n+]([O-])c1COc1ccc(/C=N/n2nnnc2N)cc1`, the displacement came out at 12.4%. For `O=C(Nc1ccc2nn(-c3ccc(F)cc3)nc2c1)c1cc2ccccc2o1`, the displacement is 2.5%. The result for `Cc1ccc(OCC(=O)N2CCc3ccccc3C2)c(Br)c1` reads -6.3%.

With `COc1ccc(NC(=O)CCN2C(=O)/C(=C\c3ccc(C)cc3)SC2=S)cc1`, the displacement came out at 7.1%.

Turning to `CN(C)c1ccc(/C=N/Nc2nnc(-c3ccccc3)c(-c3ccccc3)n2)cc1`, the displacement stood at 1.8%. `C#CCSc1nc2c(cc1C#N)CCC2`: the displacement was -2%. The result for `[O-][n+]1onc2c1CCc1c-2nc(-c2ccccc2Cl)n1O` reads -3.5%; that for `COc1cc2c(cc1OC)C(c1ccccc1)=NC1(CCCC1)C2`, -1.6%. Take `O=C1C(Cl)=C(Nc2ccccc2F)C(=O)N1c1ccc(Br)cc1`: the displacement is 5.6%. `COc1ccc2nc(SCC(=O)Nc3cccc(C(F)(F)F)c3)[nH]c2c1`: the displacement came to 5.8%. For the compound `Cc1ccccc1OCC(=O)Nc1ccc(Cl)cc1Cl`, the displacement came to 1.9%. The result for `COc1ccccc1NC(=O)CSc1cc(Cl)ccc1Cl` reads 17.5%. `COc1cccc(N2C(=O)CC(N3CCC(C)CC3)C2=O)c1` (stereo unspecified): the displacement turned out to be 6.3%. Consider `CCCCOc1ccc2c(C(F)(F)F)cc(=O)oc2c1`, for which the displacement was -30.8%.

In the case of `CCN1C(=O)/C(=C\c2cc(OC)ccc2OC)SC1=S`, the displacement was determined as 14.3%. As to `Cc1c(Br)c([N+](=O)[O-])nn1CC(=O)Nc1c(C)n(C)n(-c2ccccc2)c1=O`, the displacement was -4.9%. `CCOc1cccc(-c2cc(C(=O)N3CCC(C)CC3)c3ccccc3n2)c1`: the displacement is -2.5%. For `CCOc1ccc(-n2nc3ccc(NC(=O)c4ccc(Cl)cc4)cc3n2)cc1`, the displacement amounted to 12.7%. With `CCN1C(=O)/C(=C/c2cccc(OC)c2OC)C(=O)NC1=S`, the displacement was 1.8%. The result for `NC(=O)c1c(NC(=O)COc2ccccc2)sc2c1CCCCC2` reads 14.4%; that for `CC(Oc1cccc(Cl)c1)C(=O)Nc1ccccc1C(=O)N1CCN(C)CC1` (stereo unspecified), -4.9%; that for `COc1ccc(-c2nnc(/C=C/c3ccccc3)o2)cc1`, 12.4%. Take `COCCCNC(=O)CN(c1cccc(OC)c1)S(=O)(=O)c1ccccc1`: the displacement worked out at 15.1%. On to `CCc1ccccc1OCCCNC(C)(C)C`, for which the displacement was found to be 1.5%.

`O=C1CC(N2CCN(C(c3ccccc3)c3ccccc3)CC2)C(=O)N1c1cccc(Br)c1` (stereo unspecified): the displacement is -7.4%. In the case of `O=S(=O)(Nc1cccc(-c2nc3cc(Cl)ccc3o2)c1)c1ccccc1`, the displacement stood at 9.6%. `C=CCNC(=O)Nc1ccc2nc(-c3ccccc3)c(-c3ccccc3)nc2c1`: the displacement was -0.4%. On to `CCCCOc1ccc(C(=O)O/N=C2/C(=O)N(C)c3ccccc32)cc1`, for which the displacement amounted to 2.3%. Take `CCOC(=O)Oc1ccc2c(=O)c(Oc3ccc(C(C)(C)C)cc3)coc2c1`: the displacement is 11.9%. Take `Nc1cccc(C(=O)Nc2ccccc2C(=O)O)c1`: the displacement came out at 18.7%. In the case of `Cc1ccsc1/C=C(/C#N)c1nc(-c2ccc(-c3ccccc3)cc2)cs1`, the displacement was 3.1%. The result for `O=C1C(=O)N(Cc2ccccc2)C(c2ccc([N+](=O)[O-])cc2)/C1=C(/O)c1ccccc1` (stereo unspecified) reads 13.8%.
